Assay results taken from PubChem BioAssay AID1508624 (National Center for Advancing Translational Sciences (NCATS), 2021).
The campaign covered roughly 48,000 compounds. About 120 (0.25%) were called active. About 4% were inconclusive and are not listed. The call rests on the fitted dose curve; in most records, active means well fitted activation curve with a large enough effect; inconclusive means small, poorly fitted or top-dose-only effect, or another doubt; inactive means no such curve, though single readings can be large or run the other way. The list shows a part of the results.

Assay: Primary qHTS for Identification of Small Molecule Activators of Huntingtin-Antisense Promoter Activity; further: nearly all actives have a fitted effect of over 55% in size
Details: HEK293 HTT-AS promoter firefly luciferase reporter (activity 0% = vehicle and -100% = no light), 24 h; series mostly up to 57.5 µM; activity change, positive = activation: at the top concentration
In short: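 Quantitative HTS used concentration series of up to 57.5 uM final on HEK293 luciferase reporter cells, 24 h at 37 degrees C. Readout was Dual-Glo firefly luminescence.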

Activity change, positive = activation, inactive:
CCOC(=O)c1[nH]c(C)c(CCC(=O)Nc2cc(Cl)ccc2C)c1C -24%
COc1ccc(CCNc2ncnc3c2cnn3-c2cccc(Cl)c2)cc1 -25.4%
Cc1cc(C)n(CCc2nc3c4ccccc4nc(N4CCN(c5ccccc5F)CC4)n3n2)n1 -18.9%
C#CC(C)(CC)NC(=O)c1cnn2c(C(F)F)cc(-c3ccccc3OC)nc12 (configuration not stated) -0.427%
CC(C)CCNC(=O)c1ccc2c(c1)NC(=O)C(CS(=O)(=O)Cc1cccc(Br)c1)N2 (configuration not stated) -2.45%
Cc1ccc(Cn2ccnc2SCC(=O)NCc2ccc(F)cc2)cc1 -4.39%
COc1ccc(NC(=O)CSc2nc3ccccc3n2CC(=O)N(C)c2ccc(F)cc2)cc1 0%
COc1ccc(OCCCCn2c(C3CC(=O)N(c4cccc(Cl)c4)C3)nc3ccccc32)cc1 (configuration not stated) -45.1%
CN1C(=O)C2(SCC(=O)N2c2cccc(C(F)(F)F)c2)c2ccccc21 (configuration not stated) -12.1%
CCOC(=O)C1CCC(CN(Cc2ccc(Cl)cc2)S(=O)(=O)c2ccc(Br)cc2)CC1 (configuration not stated) -7.02%
COc1ccc(-c2onc(C)c2C)cc1S(=O)(=O)N(C)Cc1ccco1 -18.4%
CC(=O)Oc1cccc(O)c1 -1.76%
CCOC(=O)C1CCN(CC(=O)N2CCCc3c2c(=O)oc2ccc(OCc4ccccc4)cc32)CC1 10.9%
CCCN1CCN(CCNC(=O)Nc2ccc(OC)c(OC)c2)CC1 -3.54%
CCOc1ccc(NC(=O)c2cn(C)c(=O)c3cc(OC)c(OC)cc23)cc1 1.16%
COc1ccc(NC(=O)c2sc3nc(C)c(C(=O)Nc4ccc(C)cc4C)c(-c4ccc(C)o4)c3c2N)cc1 13.9%
Cc1ccc(Nc2nc(C)cc(C)n2)c(C(=O)O)c1 -12.4%
CCc1ccc(NC(=O)CN2C(=O)C3(SCC(=O)N3c3ccccc3)c3ccccc32)cc1 (configuration not stated) -28.9%
Cc1ccc(Cl)cc1NC(=O)CSC1=Nc2ccccc2C2=NC(Cc3ccccc3)C(=O)N12 (configuration not stated) -35.5%
CC1(C)CC(=O)c2cc(-c3nc(-c4ccc(Cl)cc4)cs3)c(=O)n(-c3ccc(Cl)cc3)c2C1 -15.1%
COc1ccc(NC(=O)Cn2nc(-c3ccncc3)ccc2=O)cc1Cl -1.05%
CCCCN(CCCC)CC(O)Cn1cc(/C=C/C(=O)c2ccccc2)c2ccccc21 (configuration not stated) -38.2%
O=c1c(=O)n(-c2cccc(Cl)c2)ccn1Cc1cccc(F)c1 -33.5%
CC(=O)N1CCc2cc(S(=O)(=O)NC(CC(C)C)C(=O)NCc3ccccc3)ccc21 (configuration not stated) 17.2%
COc1cccc2c1cc1c(=O)n(CC(=O)NC3CC3)nc(C)n12 -6.82%
COc1cccc(-c2nc(CSCC(=O)NCCc3ccc(Cl)cc3)c(C)o2)c1 -51.5%
Cc1nnc(SCC(=O)Nc2ccc(Br)cc2)[nH]c1=O -28.8%
